These are yes or no findings as the source states them, for the method shown. Binding seen in cells or lysates may run through a third protein. Some binding calls cover weakened binding; strength is not graded here.

Protein sequences, listed by entry. Tags and fused reporters are not part of them. Lines headed by an entry give the natural chain unless they say otherwise; changes in a name come on top.
UniProt P62491: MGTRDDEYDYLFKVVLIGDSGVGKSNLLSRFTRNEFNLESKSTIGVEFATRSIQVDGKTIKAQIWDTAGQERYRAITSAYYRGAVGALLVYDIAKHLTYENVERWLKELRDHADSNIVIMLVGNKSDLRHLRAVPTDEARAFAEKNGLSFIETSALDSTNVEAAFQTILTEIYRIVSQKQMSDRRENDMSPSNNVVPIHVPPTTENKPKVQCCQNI

The target of assay [1] is GST-Rab11a Q70A, loaded with GTP (not stated (human or mouse cDNA cloned)) (UniProt P62491). Briefly: pull-down; 500 µg GST-Rab11a Q70A on Glutathione Sepharose 4B, 20 mg mouse brain lysate in NL100 with 10 mM MgCl2 and 10 mM GTP, 1 h at 4°C; silver stain, band identified by mass spectrometry, immunoblot with a RELCH antibody; only the target purified.
Assay [2] has as its target T1, RELCH/KIAA1468, endogenous in mouse brain lysate (mouse (endogenous in mouse brain)) (UniProt Q148V7).
T1 sequence: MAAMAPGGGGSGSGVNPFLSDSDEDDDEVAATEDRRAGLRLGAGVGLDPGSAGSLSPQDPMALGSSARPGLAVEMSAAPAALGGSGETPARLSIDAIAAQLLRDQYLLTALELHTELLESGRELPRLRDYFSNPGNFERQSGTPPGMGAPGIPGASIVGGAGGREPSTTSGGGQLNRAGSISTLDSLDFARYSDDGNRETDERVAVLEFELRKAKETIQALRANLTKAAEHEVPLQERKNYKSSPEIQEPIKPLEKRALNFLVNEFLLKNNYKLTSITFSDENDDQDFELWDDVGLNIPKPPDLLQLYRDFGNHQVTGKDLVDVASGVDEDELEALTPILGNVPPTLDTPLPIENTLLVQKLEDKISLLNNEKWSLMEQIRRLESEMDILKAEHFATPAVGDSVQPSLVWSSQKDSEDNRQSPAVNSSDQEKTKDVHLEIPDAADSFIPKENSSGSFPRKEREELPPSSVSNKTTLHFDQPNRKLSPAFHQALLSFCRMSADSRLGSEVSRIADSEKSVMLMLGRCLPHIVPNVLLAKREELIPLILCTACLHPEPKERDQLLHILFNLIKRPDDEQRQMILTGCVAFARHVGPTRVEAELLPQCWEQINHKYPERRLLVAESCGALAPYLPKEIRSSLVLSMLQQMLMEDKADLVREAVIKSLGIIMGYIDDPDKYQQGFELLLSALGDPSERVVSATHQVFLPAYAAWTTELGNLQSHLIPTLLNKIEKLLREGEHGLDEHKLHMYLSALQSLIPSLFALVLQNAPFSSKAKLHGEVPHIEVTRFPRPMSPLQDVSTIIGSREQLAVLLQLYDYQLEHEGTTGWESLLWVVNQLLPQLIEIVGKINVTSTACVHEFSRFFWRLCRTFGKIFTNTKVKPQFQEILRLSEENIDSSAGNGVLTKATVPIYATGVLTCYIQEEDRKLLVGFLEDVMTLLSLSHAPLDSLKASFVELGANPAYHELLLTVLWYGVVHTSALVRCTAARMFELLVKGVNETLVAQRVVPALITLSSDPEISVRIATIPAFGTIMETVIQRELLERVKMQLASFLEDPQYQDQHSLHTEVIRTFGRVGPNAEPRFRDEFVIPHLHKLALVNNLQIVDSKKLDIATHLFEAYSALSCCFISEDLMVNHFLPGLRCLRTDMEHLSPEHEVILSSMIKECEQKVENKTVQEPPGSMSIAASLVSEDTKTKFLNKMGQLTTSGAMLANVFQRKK
In words: co-IP; rabbit antiserum against RELCH on protein G Sepharose, 10 mg mouse brain lysate in NL100, 2 h at 4°C; silver stain with mass spectrometry and immunoblot with OSBP and RELCH antibodies.

B1: RELCH/KIAA1468, endogenous in mouse brain lysate (protein, UniProt Q148V7 1-1216)
chain: T1 sequence
As to B1, the binding result in assay [1] is reported as “binds”.

B2: OSBP, endogenous in mouse brain lysate (protein, UniProt Q3B7Z2 1-805)
chain: MAATELRGVVGPGPAAIAAPGGGGAGPPAVGGGGGRGDAGPGPGVAAATAATAGGPGPGAGGVAAGGPGSAPPAAGSGGSGAGGSGSAREGWLFKWTNYIKGYQRRWFVLSNGLLSYYRSKAEMRHTCRGTINLATANITVEDSCNFIISNGGAQTYHLKASSEVERQRWVTALELAKAKAVKMLAESDDSGDEESVSQTDKTELQSTLRTLSSKVEDLSTCNDLIAKHGTALQRSLSELESLKLPAESNEKIKQVNERATLFRITSNAMINACRDFLMLAQTHSKKWQKSLQYERDQRIRLEETLEQLAKQHNHLERAFRGATVLPANPPGSAGSGKDQCCSGKGDMSDEDDENEFFDAPEIITMPENLGHKRTGSNISGASSDVSLDEQYKHQLEETKKEKRTRIPYKPNYSLNLWSIMKNCIGKELSKIPMPVNFNEPLSMLQRLTEDLEYHELLDRAAKCENSLEQLCYVAAFTVSSYSTTVFRTSKPFNPLLGETFELDRLEENGYRSICEQVSHHPPAAAHHAESKNGWTLRQEIKITSKFRGKYLSIMPLGTIHCIFHSTGHHYTWKKVTTTVHNIIVGKLWIDQSGEIDIVNHKTGDKCNLKFVPYSYFSRDVARKVTGEVTDPSGKVHFALLGTWDEKMDCFKVQAASGENGGDARQRGHEAEDSRVMLWKRNPLPKNAENMYYFSELALTLNAWEGGTAPTDSRLRPDQRLMENGRWDEANAEKQRLEEKQRLSRKKREAEAAKATEDGTPHDPYKALWFERKKDPVTRELTHIYSGEYWECKEKQDWGSCPDIF
Consider B2, for which the binding result in assay [2] is listed as “binds”.
